Experimental findings from PubChem BioAssay AID463173 (ICCB-Longwood Screening Facility, Harvard Medical School, 2010) are described below.

Out of some 52,000 compounds screened, about 4,300 (8.3%) were called active. Rule as the data show it: active = survival mostly below about 52% (no sharp cut-off); inactive = mostly above about 56%. The list shows a part of the results.

The test has as its system DeltatarO mutant. Briefly: growth inhibition of S. aureus wild type versus tarO mutant, primary screen, teichoic acid synthesis inhibitors, RN4220, OD600 (AID 463173). Particulars: OD600, 18 h, stronger effect = lower value, screened at 18.75 µg/mL (by protocol).
Consider `Cc1ccc(S(=O)(=O)c2nnn3c2nc(N2CCCCC2)c2sccc23)cc1`, for which the survival was inactive: 104%.
The result for `CCn1ccc2cc(S(=O)(=O)N3CCCN(C(=O)Nc4ccc(C)cc4)CC3)ccc21` reads inactive: 73%; that for `CCC(=O)Nc1ccc(C(=O)CSc2ncc(C#N)c(N)n2)cc1OC`, inactive: 96%; that for `Cc1cn2c(=O)c(S(=O)(=O)NC(C)c3ccccc3)c(C)nc2s1` (stereo unspecified), inactive: 68%.
Under `Cc1ccc(NC(=O)Cn2ncc3c4ccccc4n(Cc4ccccc4)c3c2=O)cc1Cl` stands inactive: 89%.
Under `Cc1ccc(C)c2sc(N3CCN(C(=O)c4ccco4)CC3)nc12` stands inactive: 134%; under `CCOc1ccc(NC(=O)c2ccc3c(c2)c(C)c(C)n3Cc2ccc(F)cc2)cc1`, inactive: 92%.
As to `COc1ccc(S(=O)(=O)NCCc2sc(-c3ccccc3)nc2C)cc1F`, the survival is inactive: 84%.
As for `Cc1ccc(Cl)cc1N1CCN(S(=O)(=O)c2ccc(-c3cnc(C4CC4)o3)cc2)CC1`, the survival is inactive: 69%.
Under `CC(=O)c1ccc(NC(=O)c2cc(C3CC3)nc3c2c(C)nn3-c2ccc(C)cc2)cc1` stands active: 46%; under `Cc1nnc(Nc2ccc(C(=O)O)cc2)[nH]c1=O`, inactive: 108%; under `COC(=O)c1sccc1S(=O)(=O)N1CCN(c2ccc(C(C)=O)cc2)CC1`, inactive: 115%.
Under `COc1ccc(Cl)cc1NC(=O)Cn1nnc(C(=O)NCc2ccc3c(c2)OCO3)c1N` stands inactive: 60%; under `Cc1ccc(Cn2c(CN3CCC(C(=O)NCC(C)c4ccccc4)CC3)cc3ccccc32)cc1` (stereo unspecified), inactive: 113%.
Under `CCOC(=O)c1c(NC(=O)CSc2cn(CCNC(=O)c3c(F)cccc3F)c3ccccc23)sc2c1CCCC2` stands inactive: 92%.
As to `CCOCCc1nn2c(=O)cc(COC(=O)c3cccc(C)c3)nc2s1`, the survival is active: -5%.
For `Cc1ccc(-c2cc(C(=O)Nc3c(C(=O)c4ccc(C)c(F)c4)oc4ccccc34)no2)cc1`, the survival is inactive: 90%.
Take `Cc1ccc(C)c(N2CCN(C(=O)C3CCCN(S(=O)(=O)c4cccc5nonc45)C3)CC2)c1` (stereo unspecified): the survival was inactive: 76%.
On to `Cc1cc(C)c(NC(=O)CN(C)S(=O)(=O)c2ccc3c(c2)c(=O)n(C)c(=O)n3C)c(C)c1`, for which the survival was inactive: 81%.
With `CCC1=C(c2ccc(C)cc2)S(=O)(=O)N=C1N1CCC(C(=O)NCc2ccc(C)cc2)CC1`, the survival is inactive: 66%.
Turning to `Cc1ccc(C(=O)/C=C/c2cn(CC(O)CN3CCCCCC3)c3ccccc23)cc1` (stereo unspecified), the survival was active: 12%.
Take `Cc1ccc(NC(=O)CSc2nccn2Cc2ccc3c(c2)OCO3)c(C)c1`: the survival was inactive: 86%.
The result for `CCOC(=O)c1ccc2nc(C)c(CC)c(Cl)c2c1` reads inactive: 73%.
Under `CCC(C)NC(=O)CCC(=O)NNc1nc2ccccc2c2nc(C)nn12` (stereo unspecified) stands inactive: 128%.
For `COc1cc(NS(=O)(=O)c2ccc(NC(=O)c3ccc(OC)c(Br)c3)cc2)nc(OC)n1`, the survival is inactive: 90%.
With `CCc1ccc(S(=O)(=O)n2ccnc2)cc1`, the survival was inactive: 95%.
The result for `COCCn1c(=NC(=O)c2ccc3c(c2)OCCO3)sc2cc(NC(C)=O)ccc21` reads inactive: 94%; that for `Cc1ccc(-c2nn3c(=O)cc(CN4CCN(C(=O)c5ccc(C(C)(C)C)cc5)CC4)nc3s2)cc1`, inactive: 67%; that for `O=C(Nc1ccc(F)cc1F)N1CCc2c(sc3c2CCCC3)C1c1ccc(F)cc1` (stereo unspecified), inactive: 93%.
The result for `Cc1ccc(C(C(=O)NC2CCCC2)N(C(=O)Cn2nnc3ccccc32)c2cnc3ccccc3c2)o1` (stereo unspecified) reads inactive: 104%; that for `COc1ccc(C(=O)N2CCN(C(=O)COc3ccc(C)cc3)CC2)cc1OC`, inactive: 78%.
On to `CC(C)c1ccc(NC(=O)CN2C(=O)CCc3cc(S(=O)(=O)N4CCOCC4)ccc32)cc1`, for which the survival is inactive: 87%.
The result for `CC(C)c1ccc(NC(=O)c2ccc(F)c(S(=O)(=O)N3CCN(c4ccccc4F)CC3)c2)cc1` reads inactive: 115%.
The result for `O=C(Cn1cc(S(=O)(=O)N2CCN(c3ccccc3F)CC2)c2ccccc2c1=O)Nc1ccc(F)cc1Cl` reads inactive: 120%; that for `COc1cc2c(C(=O)N3CCN(c4cc(Cl)ccc4C)CC3)cn(CC(C)C)c(=O)c2cc1OC`, active: 40%.
As to `CN(C(=O)CSc1nnc2c3ccccc3n(C)c2n1)C1CCCCC1`, the survival is inactive: 52%.
For the compound `CCCOc1ccc(-c2cccc(NS(=O)(=O)c3ccc(CC)cc3)c2)nn1`, the survival is inactive: 94%.
The result for `COc1ccc(NC(=O)CN2CCN(c3ccccc3F)CC2)c(OC)c1` reads inactive: 73%; that for `Cc1cc(SCC(=O)Nc2nsc(-c3ccc(C(C)(C)C)cc3)n2)nc2ccccc12`, active: 13%.
The result for `COc1cccc(N2CCN(C(=O)c3c4c(nc5ccccc35)C(=O)N(C3CCCCC3)C4)CC2)c1` reads inactive: 98%.
The result for `COc1cccc(NC(=O)C2CCCN2S(=O)(=O)c2ccc3nc(-c4ccccc4)[nH]c3c2)c1` (stereo unspecified) reads active: 44%.
Turning to `COc1ccc(OCc2nc(C#N)c(NCc3ccccc3Cl)o2)cc1`, the survival is inactive: 80%.
Under `CN(C)CCSc1nnc(-c2ccccc2)o1` stands inactive: 77%; under `COc1ccccc1OCC(=O)N/N=C1/SCC(=O)N1Cc1ccccc1`, inactive: 78%; under `COc1cc(Cl)c(C)cc1Nc1nnc(-n2nc(C)cc2C)c2ccccc12`, inactive: 107%.
Under `COc1ccc(-c2nc3sc(CCNS(=O)(=O)c4c(C)cc(C)cc4C)c(C)n3n2)cc1` stands active: -1%; under `CCc1cccc(NC(=O)C(Cc2ccccc2)NS(=O)(=O)c2ccc3c(c2)c(=O)n(C)c(=O)n3C)c1` (stereo unspecified), inactive: 54%; under `Cc1onc(-c2ccccc2)c1C(=O)N1CCOCC1`, inactive: 77%.
Under `CC(=O)N1c2ccc(S(=O)(=O)NCC3CCC(C(=O)Nc4cc(C)cc(C)c4)CC3)cc2CC1C` (stereo unspecified) stands inactive: 101%.
On to `Cc1ccc(C)c(S(=O)(=O)n2nc(C)c(S(=O)(=O)N3CCC(C)CC3)c2C)c1`, for which the survival was inactive: 83%.
The result for `Cc1ccc(-n2nc3c(N4CCC(C(=O)N(C)Cc5ccccc5)CC4)nnc(C)c3c2C)cc1` reads inactive: 69%; that for `O=C(NCCN1CCCCC1)c1ccc(Cn2c(SCc3ccc(F)cc3)nc3cccnc32)cc1`, inactive: 113%; that for `CN(C)c1ccc(CN(Cc2ccco2)C(=O)c2ccc(F)cc2)cc1`, inactive: 68%.
Under `Cc1ccc(-n2cnc3ccccc3c2=O)cc1C` stands inactive: 80%.
The result for `CC(=O)Nc1cccc(NC(=O)Cc2csc(COc3cccc(C)c3)n2)c1` reads inactive: 89%.
For the compound `CCOC(=O)N1CCc2c(sc3c2c(=O)n(-c2ccc(CC)cc2)c(=O)n3Cc2cccc(OC)c2)C1`, the survival is inactive: 75%.
For the compound `COc1ccccc1N1CCN(S(=O)(=O)c2ccc(-n3cnnn3)cc2)CC1`, the survival is inactive: 75%.
Under `CCOc1ccc(C(=O)Nc2ccc3c(c2)N(C(C)=O)CCC3)cc1OCC` stands inactive: 69%; under `CCOc1ccc(C2c3c(oc4cc(C)c(C)cc4c3=O)C(=O)N2c2ccccn2)cc1` (stereo unspecified), inactive: 78%.
On to `CCC(C(=O)Nc1cc(C)ccc1OC)n1nnc(C(=O)OC)c1C(=O)OC` (stereo unspecified), for which the survival is inactive: 94%.
The result for `COc1ccc(NS(=O)(=O)c2ccc3c(c2)NC(=O)CCS3)c(OC)c1` reads inactive: 76%.
Under `CCc1ccccc1N1C(=O)N(CC(=O)c2ccc(Cl)cc2)c2ccccc2S1(=O)=O` stands inactive: 82%; under `COC(=O)c1c(SC)nc2ccccc2c1OCc1ccc(C)cc1`, inactive: 102%.
`CCOc1ccc(C2=C(C(=O)CC)Sc3nncn3N2C(=O)CC)cc1`: the survival was active: 17%.
Under `COc1ccc(Nc2cc(C(=O)NCc3cccs3)c3ccccc3n2)cc1` stands inactive: 131%; under `O=C(CSc1ncc(-c2ccccc2)[nH]1)Nc1ccc(F)cc1F`, inactive: 59%.
Under `CCCCOC(=O)Cn1nnc2sc(-c3ccccc3)cc2c1=O` stands inactive: 71%.
The result for `CN1CCN(C(=O)C(=O)Nc2c3c(nn2-c2cccc(Cl)c2)CSC3)CC1` reads inactive: 76%; that for `COc1ccc(CCNC(=O)CSc2cn(CCNC(=O)c3ccccc3F)c3ccccc23)cc1OC`, inactive: 137%.
Take `COC(=O)c1c(-c2ccc(Cl)cc2)noc1N1CCN(c2cccc(C)c2C)CC1`: the survival was inactive: 79%.
On to `CCc1cnc2c(c1SCC(=O)Nc1ccc(OC)c(OC)c1)c(=O)n(C)c(=O)n2C`, for which the survival is inactive: 94%.
As for `c1ccc(-n2nc3ccc4nonc4c3n2)cc1`, the survival was inactive: 86%.
With `CCOC(=O)Cn1c(=O)oc2cc(S(=O)(=O)N3CCCC(C)C3)ccc21` (stereo unspecified), the survival was inactive: 130%.
The result for `CCOC(=O)c1cc(S(=O)(=O)N2CCN(c3cccc(OC)c3)CC2)[nH]n1` reads inactive: 108%; that for `CCCCn1cc(S(=O)(=O)c2ccc(Cl)cc2)c(=O)c2cc(F)c(N3CCCC(C)C3)cc21` (stereo unspecified), inactive: 117%.
The result for `CC(=O)N1c2c(cc(Br)cc2S(=O)(=O)Nc2ccc(OC(F)(F)F)cc2)CC1C` (stereo unspecified) reads inactive: 66%.
The result for `CCOc1ccc(CNC(=O)Cn2cc3c(n2)-c2c(oc(C(=O)N4CCCC4)c2C)CC3)cc1` reads inactive: 84%; that for `COc1ccc(S(=O)(=O)N(CCc2ccccc2)CC(N)=O)cc1`, inactive: 88%.
As for `CCCC1=Nc2cc(C(=O)NCC(C)c3ccccc3)ccc2Sc2ccccc21` (stereo unspecified), the survival is inactive: 62%.
As for `COc1cccc(CNC(=O)Cn2nc3c(cc2=O)CCCC3)c1OC`, the survival was inactive: 92%.
Under `CC1CCCN(C(=O)CCS(=O)(=O)c2cc3c(cc2Cl)NC(=O)CO3)C1` (stereo unspecified) stands inactive: 84%.
With `Cc1ccc(C2c3c(-c4ccccc4O)n[nH]c3C(=O)N2CCc2ccccc2)cc1` (stereo unspecified), the survival was active: 32%.
Take `COc1ccc(NC(=O)CSc2nc(-c3ccc(OC)c(OC)c3)[nH]c2-c2ccc(C)cc2)cc1`: the survival is inactive: 97%.
The result for `COc1ccc(NCc2cc3cc4c(cc3n(CC(=O)Nc3ccccc3)c2=O)OCO4)cc1` reads inactive: 94%; that for `CCOC(=O)Cc1ccc(NC(=O)N(C(C)C)C2CCN(C(C)=O)CC2)cc1`, inactive: 80%.
The result for `O=C(Nc1ccc(Cl)cc1)c1cc(S(=O)(=O)N2CCCc3ccccc32)ccc1F` reads inactive: 116%.
